# Measurements published in publication PMC9911399, “Two distinct binding modes provide the RNA-binding protein RbFox with extraordinary sequence specificity”.
# Residue numbers refer to the chain shown, from its start. Some of the results follow.
# T1: RBFOX1 RRM RbFoxmut (Fox-RRM*) (Homo sapiens, UniProt Q9NWB1 109-208, R118D;E147R;N151S;E152T)
# T1 sequence: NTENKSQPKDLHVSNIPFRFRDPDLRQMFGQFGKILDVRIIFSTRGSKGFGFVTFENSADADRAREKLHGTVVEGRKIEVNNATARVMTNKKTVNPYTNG
# B1: GACAGUC (DNA:RNA)
# RNA: GGGAGACCGGAAUUCAGAUUGUCCGACAGUCUUAAAUCCCGUCGUAGCCACCA
# DNA 1: CAATCTGAATTCCGGTCTCCC
# DNA 2: TGGTGGCTACGACGGGATT
# B2: UCGCUAA (DNA:RNA)
# RNA: GGGAGACCGGAAUUCAGAUUGUCCUCGCUAAUUAAAUCCCGUCGUAGCCACCA
# DNA 1: CAATCTGAATTCCGGTCTCCC
# DNA 2: TGGTGGCTACGACGGGATT
# B3: CGAUGUU (DNA:RNA)
# RNA: B1 RNA with G25C, A26G, C27A, A28U, C31U
# DNA 1: CAATCTGAATTCCGGTCTCCC
# DNA 2: TGGTGGCTACGACGGGATT
# B4: AGGAAGU (DNA:RNA)
# RNA: B1 RNA with G25A, A26G, C27G, G29A, U30G, C31U
# DNA 1: CAATCTGAATTCCGGTCTCCC
# DNA 2: TGGTGGCTACGACGGGATT
# B5: CGCUAGU (DNA:RNA)
# RNA: B1 RNA with G25C, A26G, A28U, G29A, U30G, C31U
# DNA 1: CAATCTGAATTCCGGTCTCCC
# DNA 2: TGGTGGCTACGACGGGATT
# B6: UCCCUCC (DNA:RNA)
# RNA: B2 RNA with G27C, A30C, A31C
# DNA 1: CAATCTGAATTCCGGTCTCCC
# DNA 2: TGGTGGCTACGACGGGATT
# B7: CGCGGCG (DNA:RNA)
# RNA: B1 RNA with G25C, A26G, A28G, U30C, C31G
# DNA 1: CAATCTGAATTCCGGTCTCCC
# DNA 2: TGGTGGCTACGACGGGATT
# B8: ACAAUAU (DNA:RNA)
# RNA: B2 RNA with U25A, G27A, C28A, A31U
# DNA 1: CAATCTGAATTCCGGTCTCCC
# DNA 2: TGGTGGCTACGACGGGATT
# B9: UGAUGCC (DNA:RNA)
# RNA: B1 RNA with G25U, A26G, C27A, A28U, U30C
# DNA 1: CAATCTGAATTCCGGTCTCCC
# DNA 2: TGGTGGCTACGACGGGATT
# B10: GUUCGAU (DNA:RNA)
# RNA: B1 RNA with A26U, C27U, A28C, U30A, C31U
# DNA 1: CAATCTGAATTCCGGTCTCCC
# DNA 2: TGGTGGCTACGACGGGATT
# B11: AGUAUGA (DNA:RNA)
# RNA: B2 RNA with U25A, C26G, G27U, C28A, A30G
# DNA 1: CAATCTGAATTCCGGTCTCCC
# DNA 2: TGGTGGCTACGACGGGATT
# B12: GUUUAAU (DNA:RNA)
# RNA: B1 RNA with A26U, C27U, A28U, G29A, U30A, C31U
# DNA 1: CAATCTGAATTCCGGTCTCCC
# DNA 2: TGGTGGCTACGACGGGATT
# B13: CGUCGGA (DNA:RNA)
# RNA: B2 RNA with U25C, C26G, G27U, U29G, A30G
# DNA 1: CAATCTGAATTCCGGTCTCCC
# DNA 2: TGGTGGCTACGACGGGATT
# B14: CGUCCUA (DNA:RNA)
# RNA: B2 RNA with U25C, C26G, G27U, U29C, A30U
# DNA 1: CAATCTGAATTCCGGTCTCCC
# DNA 2: TGGTGGCTACGACGGGATT
# B15: CAUCUGU (DNA:RNA)
# RNA: B2 RNA with U25C, C26A, G27U, A30G, A31U
# DNA 1: CAATCTGAATTCCGGTCTCCC
# DNA 2: TGGTGGCTACGACGGGATT
# B16: AUGCGGU (DNA:RNA)
# RNA: B2 RNA with U25A, C26U, U29G, A30G, A31U
# DNA 1: CAATCTGAATTCCGGTCTCCC
# DNA 2: TGGTGGCTACGACGGGATT
# B17: UUACACA (DNA:RNA)
# RNA: B2 RNA with C26U, G27A, U29A, A30C
# DNA 1: CAATCTGAATTCCGGTCTCCC
# DNA 2: TGGTGGCTACGACGGGATT
# B18: GAUCGAU (DNA:RNA)
# RNA: B1 RNA with C27U, A28C, U30A, C31U
# DNA 1: CAATCTGAATTCCGGTCTCCC
# DNA 2: TGGTGGCTACGACGGGATT
# B19: GAGUCAG (DNA:RNA)
# RNA: B1 RNA with C27G, A28U, G29C, U30A, C31G
# DNA 1: CAATCTGAATTCCGGTCTCCC
# DNA 2: TGGTGGCTACGACGGGATT
# B20: CUUGUAU (DNA:RNA)
# RNA: B2 RNA with U25C, C26U, G27U, C28G, A31U
# DNA 1: CAATCTGAATTCCGGTCTCCC
# DNA 2: TGGTGGCTACGACGGGATT
# B21: UAGGCUC (DNA:RNA)
# RNA: B1 RNA with G25U, C27G, A28G, G29C
# DNA 1: CAATCTGAATTCCGGTCTCCC
# DNA 2: TGGTGGCTACGACGGGATT
# B22: GAUCUCU (DNA:RNA)
# RNA: B1 RNA with C27U, A28C, G29U, U30C, C31U
# DNA 1: CAATCTGAATTCCGGTCTCCC
# DNA 2: TGGTGGCTACGACGGGATT
# B23: CAGCGGG (DNA:RNA)
# RNA: B1 RNA with G25C, C27G, A28C, U30G, C31G
# DNA 1: CAATCTGAATTCCGGTCTCCC
# DNA 2: TGGTGGCTACGACGGGATT
# B24: GGCGGUC (DNA:RNA)
# RNA: B1 RNA with A26G, A28G
# DNA 1: CAATCTGAATTCCGGTCTCCC
# DNA 2: TGGTGGCTACGACGGGATT
# B25: GGGGUGA (DNA:RNA)
# RNA: B2 RNA with U25G, C26G, C28G, A30G
# DNA 1: CAATCTGAATTCCGGTCTCCC
# DNA 2: TGGTGGCTACGACGGGATT
# B26: ACGGGUA (DNA:RNA)
# RNA: B2 RNA with U25A, C28G, U29G, A30U
# DNA 1: CAATCTGAATTCCGGTCTCCC
# DNA 2: TGGTGGCTACGACGGGATT
# B27: CAAACCA (DNA:RNA)
# RNA: B1 RNA with G25C, C27A, G29C, U30C, C31A
# DNA 1: CAATCTGAATTCCGGTCTCCC
# DNA 2: TGGTGGCTACGACGGGATT
# B28: AGUAUUC (DNA:RNA)
# RNA: B1 RNA with G25A, A26G, C27U, G29U
# DNA 1: CAATCTGAATTCCGGTCTCCC
# DNA 2: TGGTGGCTACGACGGGATT
# B29: CAGUCAA (DNA:RNA)
# RNA: B2 RNA with U25C, C26A, C28U, U29C
# DNA 1: CAATCTGAATTCCGGTCTCCC
# DNA 2: TGGTGGCTACGACGGGATT
# B30: GCCAGUU (DNA:RNA)
# RNA: B1 RNA with A26C, C31U
# DNA 1: CAATCTGAATTCCGGTCTCCC
# DNA 2: TGGTGGCTACGACGGGATT
# B31: GUAAAGU (DNA:RNA)
# RNA: B1 RNA with A26U, C27A, G29A, U30G, C31U
# DNA 1: CAATCTGAATTCCGGTCTCCC
# DNA 2: TGGTGGCTACGACGGGATT
# Target: T1, RBFOX1 RRM RbFoxmut (Fox-RRM*)
# Assay: EMSA; HiTS-Eq, 1 nM pool, 10 min; buffer printed only for the single-RNA assays: 10 mM Tris pH 7.5, 150 mM NaCl, 3.4 mM EDTA, 0.001% NP-40, 30 C
# Details: tags: His6 N-terminal (pET28a); label: 5' 32P
# Procedure, shortened: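 Relative association constants, normalised to the cognate motif, were derived by comparing read counts of each RNA species with those of the control reaction. The RNA sequenced was the free fraction, separated by 8% native PAGE after a 10 min equilibration in 50 µL of 1 nM 5′-radiolabelled RNA (7 randomized nucleotides) with increasing concentrations of purified wild-type or mutant RbFox RRM.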
row,Binder,binding signal
1,B1,0.0521 KA relative to UGCAUGU
2,B2,0.106 KA relative to UGCAUGU
3,B3,0.119 KA relative to UGCAUGU
4,B4,0.118 KA relative to UGCAUGU
5,B5,0.144 KA relative to UGCAUGU
6,B6,0.0896 KA relative to UGCAUGU
7,B7,0.134 KA relative to UGCAUGU
8,B8,0.102 KA relative to UGCAUGU
9,B9,0.191 KA relative to UGCAUGU
10,B10,0.0982 KA relative to UGCAUGU
11,B11,0.189 KA relative to UGCAUGU
12,B12,0.126 KA relative to UGCAUGU
13,B13,0.0839 KA relative to UGCAUGU
14,B14,0.0918 KA relative to UGCAUGU
15,B15,0.0783 KA relative to UGCAUGU
16,B16,0.126 KA relative to UGCAUGU

row,Binder,binding signal
1,B17,0.0868 KA relative to UGCAUGU
2,B18,0.0971 KA relative to UGCAUGU
3,B19,0.116 KA relative to UGCAUGU
4,B20,0.151 KA relative to UGCAUGU
5,B21,0.0529 KA relative to UGCAUGU
6,B22,0.0673 KA relative to UGCAUGU
7,B23,0.0632 KA relative to UGCAUGU
8,B24,0.177 KA relative to UGCAUGU
9,B25,0.168 KA relative to UGCAUGU
10,B26,0.16 KA relative to UGCAUGU
11,B27,0.106 KA relative to UGCAUGU
12,B28,0.1 KA relative to UGCAUGU
13,B29,0.0766 KA relative to UGCAUGU
14,B30,0.0611 KA relative to UGCAUGU
15,B31,0.101 KA relative to UGCAUGU
